The other results are listed elsewhere or left out.
Assays:
Test in all cases: glycan array binding signal (z-score within array); higher = stronger binding
Settings in all cases: glycan notation: IUPAC condensed, linker removed
[1] = biological target: Gal3S4S(b1-4)GlcNAc
Outline: (§1)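 Glycan array data were curated from 3228 arrays in the Consortium for Functional Glycomics database and kept only where the protein sequence was available. Glycan names were converted to IUPAC-condensed notation, and columns mapping to the same glycan were averaged. The binding signal is a within-array Z-score, averaged across arrays of the same protein sequence at different concentrations or buffers and across linkers. Negative Z-scores can be read as non-binding.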

[2] = biological target: Gal3S6S(b1-4)GlcNAc
Outline: as §1

[3] = biological target: Gal3S6S(b1-4)GlcNAc6S
Outline: as §1

[4] = biological target: Gal4S(b1-4)GlcNAc
Outline: as §1

[5] = biological target: Gal4S6S(b1-4)GlcNAc
Outline: as §1

[6] = biological target: Gal6P(b1-4)GlcNAc
Outline: as §1

[7] = biological target: Gal6S(b1-3)GlcNAc
Outline: as §1

[8] = biological target: Gal6S(b1-3)GlcNAc6S
Outline: as §1

[9] = biological target: Gal6S(b1-4)Glc
Outline: as §1

[10] = biological target: Gal6S(b1-4)Glc6S
Outline: as §1

[11] = biological target: Gal6S(b1-4)GlcNAc
Outline: as §1

[12] = biological target: Gal6S(b1-4)GlcNAc6S
Outline: as §1

[13] = biological target: GalNAc(a1-3)Gal
Outline: as §1

[14] = biological target: GalNAc(a1-3)GalNAc
Outline: as §1

[15] = biological target: GalNAc(a1-3)GalNAc(b1-3)Gal(a1-4)Gal(b1-4)Glc
Outline: as §1

[16] = biological target: GalNAc(a1-3)GalNAc(b1-3)Gal(a1-4)Gal(b1-4)GlcNAc
Outline: as §1

[17] = biological target: GalNAc(b1-3)Gal
Outline: as §1

[18] = biological target: GalNAc(b1-3)Gal(a1-4)Gal(b1-4)GlcNAc
Outline: as §1

[19] = biological target: GalNAc(b1-3)Gal(a1-4)Gal(b1-4)GlcNAc(b1-3)Gal(b1-4)Glc
Outline: as §1

[20] = biological target: GalNAc(b1-3)Gal(a1-6)Gal(b1-4)Glc
Outline: as §1

[21] = biological target: GalNAc(b1-3)GalNAc
Outline: as §1

[22] = biological target: GalNAc(b1-4)Gal(b1-4)Glc
Outline: as §1

[23] = biological target: GalNAc(b1-4)GlcNAc
Outline: as §1

[24] = biological target: GalNAc(b1-4)GlcNAc(b1-2)Man(a1-3)[GalNAc(b1-4)GlcNAc(b1-2)Man(a1-6)]Man(b1-4)GlcNAc(b1-4)GlcNAc
Outline: as §1

[25] = biological target: GalNAc(b1-4)GlcNAc6S
Outline: as §1

[26] = biological target: GalNAc(b1-6)GalNAc
Outline: as §1

[27] = biological target: GalNAc3S(b1-4)GlcNAc
Outline: as §1

[28] = biological target: GalNAc3S(b1-4)GlcNAc3S
Outline: as §1

[29] = biological target: GalNAc4S6S(b1-4)GlcNAc
Outline: as §1

[30] = biological target: GalNAc6S(b1-4)GlcNAc
Outline: as §1

[31] = biological target: Glc(a1-4)Glc
Outline: as §1

[32] = biological target: Glc(a1-4)Glc(a1-4)Glc(a1-4)Glc
Outline: as §1

[33] = biological target: Glc(a1-6)Glc(a1-6)Glc
Outline: as §1

[34] = biological target: Glc(a1-6)Glc(a1-6)Glc(a1-6)Glc
Outline: as §1

[35] = biological target: Glc(b1-4)Glc
Outline: as §1

[36] = biological target: Glc(b1-6)Glc
Outline: as §1

[37] = biological target: GlcA(b1-3)Gal
Outline: as §1

[38] = biological target: GlcA(b1-3)GlcNAc
Outline: as §1

[39] = biological target: GlcA(b1-6)Gal
Outline: as §1

[40] = biological target: GlcNAc(a1-3)Gal(b1-4)GlcNAc
Outline: as §1

[41] = biological target: GlcNAc(a1-4)Gal(b1-3)GlcNAc
Outline: as §1

[42] = biological target: GlcNAc(a1-4)Gal(b1-4)GalNAc
Outline: as §1

[43] = biological target: GlcNAc(a1-4)Gal(b1-4)GlcNAc
Outline: as §1

[44] = biological target: GlcNAc(a1-4)Gal(b1-4)GlcNAc(b1-3)Gal(b1-4)Glc
Outline: as §1

[45] = biological target: GlcNAc(a1-4)Gal(b1-4)GlcNAc(b1-3)Gal(b1-4)GlcNAc
Outline: as §1

[46] = biological target: GlcNAc(a1-4)Gal(b1-4)GlcNAc(b1-3)Gal(b1-4)GlcNAc(b1-3)Gal(b1-4)GlcNAc
Outline: as §1

[47] = biological target: GlcNAc(a1-4)Gal(b1-4)GlcNAc(b1-3)Gal(b1-4)[Fuc(a1-3)]GlcNAc(b1-3)Gal(b1-4)[Fuc(a1-3)]GlcNAc
Outline: as §1

[48] = biological target: GlcNAc(a1-6)Gal(b1-4)GlcNAc
Outline: as §1

[49] = biological target: GlcNAc(b1-2)Gal(b1-3)GalNAc
Outline: as §1

[50] = biological target: GlcNAc(b1-2)Man(a1-3)[GlcNAc(b1-2)Man(a1-6)]Man(b1-4)GlcNAc(b1-4)GlcNAc
Outline: as §1

[51] = biological target: GlcNAc(b1-2)Man(a1-3)[GlcNAc(b1-2)Man(a1-6)]Man(b1-4)GlcNAc(b1-4)[Fuc(a1-6)]GlcNAc
Outline: as §1

[52] = biological target: GlcNAc(b1-2)Man(a1-3)[GlcNAc(b1-4)][GlcNAc(b1-2)Man(a1-6)]Man(b1-4)GlcNAc(b1-4)GlcNAc
Outline: as §1

[53] = biological target: GlcNAc(b1-2)[GlcNAc(b1-4)]Man(a1-3)[GlcNAc(b1-2)Man(a1-6)]Man(b1-4)GlcNAc(b1-4)GlcNAc
Outline: as §1

[54] = biological target: GlcNAc(b1-2)[GlcNAc(b1-4)]Man(a1-3)[GlcNAc(b1-4)][GlcNAc(b1-2)Man(a1-6)]Man(b1-4)GlcNAc(b1-4)GlcNAc
Outline: as §1

[55] = biological target: GlcNAc(b1-2)[GlcNAc(b1-4)]Man(a1-3)[GlcNAc(b1-4)][GlcNAc(b1-2)[GlcNAc(b1-6)]Man(a1-6)]Man(b1-4)GlcNAc(b1-4)GlcNAc
Outline: as §1

[56] = biological target: GlcNAc(b1-2)[GlcNAc(b1-4)]Man(a1-3)[GlcNAc(b1-4)][GlcNAc(b1-2)[GlcNAc(b1-6)]Man(a1-6)]Man(b1-4)GlcNAc(b1-4)[Fuc(a1-6)]GlcNAc
Outline: as §1

[57] = biological target: GlcNAc(b1-2)[GlcNAc(b1-6)]Man(a1-6)[GlcNAc(b1-2)Man(a1-3)]Man(b1-4)GlcNAc(b1-4)GlcNAc
Outline: as §1

[58] = biological target: GlcNAc(b1-2)[GlcNAc(b1-6)]Man(a1-6)[GlcNAc(b1-2)Man(a1-3)]Man(b1-4)GlcNAc(b1-4)[Fuc(a1-6)]GlcNAc
Outline: as §1

[59] = biological target: GlcNAc(b1-2)[GlcNAc(b1-6)]Man(a1-6)[GlcNAc(b1-2)Man(a1-3)][GlcNAc(b1-4)]Man(b1-4)GlcNAc(b1-4)GlcNAc
Outline: as §1

[60] = biological target: GlcNAc(b1-3)Gal
Outline: as §1

B1: PRKCE (Homo sapiens), Q02156 (protein)
chain: MVVFNGLLKIKICEAVSLKPTAWSLRHAVGPRPQTFLLDPYIALNVDDSRIGQTATKQKTNSPAWHDEFVTDVCNGRKIELAVFHDAPIGYDDFVANCTIQFEELLQNGSRHFEDWIDLEPEGRVYVIIDLSGSSGEAPKDNEERVFRERMRPRKRQGAVRRRVHQVNGHKFMATYLRQPTYCSHCRDFIWGVIGKQGYQCQVCTCVVHKRCHELIITKCAGLKKQETPDQVGSQRFSVNMPHKFGIHNYKVPTFCDHCGSLLWGLLRQGLQCKVCKMNVHRRCETNVAPNCGVDARGIAKVLADLGVTPDKITNSGQRRKKLIAGAESPQPASGSSPSEEDRSKSAPTSPCDQEIKELENNIRKALSFDNRGEEHRAASSPDGQLMSPGENGEVRQGQAKRLGLDEFNFIKVLGKGSFGKVMLAELKGKDEVYAVKVLKKDVILQDDDVDCTMTEKRILALARKHPYLTQLYCCFQTKDRLFFVMEYVNGGDLMFQIQRSRKFDEPRSRFYAAEVTSALMFLHQHGVIYRDLKLDNILLDAEGHCKLADFGMCKEGILNGVTTTTFCGTPDYIAPEILQELEYGPSVDWWALGVLMYEMMAGQPPFEADNEDDLFESILHDDVLYPVWLSKEAVSILKAFMTKNPHKRLGCVASQNGEDAIKQHPFFKEIDWVLLEQKKIKPPFKPRIKTKRDVNNFDQDFTREEPVLTLVDEAIVKQINQEEFKGFSYFGEDLMP
[1]
  glycan array binding signal (z-score): 8.77
[2]
  glycan array binding signal (z-score): -0.175
[3]
  glycan array binding signal (z-score): -0.384
[4]
  glycan array binding signal (z-score): -0.383
[5]
  glycan array binding signal (z-score): -0.31
[6]
  glycan array binding signal (z-score): -0.166
[7]
  glycan array binding signal (z-score): -0.341
[8]
  glycan array binding signal (z-score): 2.33
[9]
  glycan array binding signal (z-score): -0.275
[10]
  glycan array binding signal (z-score): -0.115
[11]
  glycan array binding signal (z-score): -0.405
[12]
  glycan array binding signal (z-score): 3.2
[13]
  glycan array binding signal (z-score): -0.408
[14]
  glycan array binding signal (z-score): -0.416
[15]
  glycan array binding signal (z-score): -0.227
[16]
  glycan array binding signal (z-score): -0.409
[17]
  glycan array binding signal (z-score): -0.412
[18]
  glycan array binding signal (z-score): -0.251
[19]
  glycan array binding signal (z-score): -0.217
[20]
  glycan array binding signal (z-score): -0.278
[21]
  glycan array binding signal (z-score): -0.41
[22]
  glycan array binding signal (z-score): -0.016
[23]
  glycan array binding signal (z-score): -0.33
[24]
  glycan array binding signal (z-score): -0.427
[25]
  glycan array binding signal (z-score): -0.272
[26]
  glycan array binding signal (z-score): -0.41
[27]
  glycan array binding signal (z-score): -0.338
[28]
  glycan array binding signal (z-score): 0.501
[29]
  glycan array binding signal (z-score): -0.211
[30]
  glycan array binding signal (z-score): -0.375
[31]
  glycan array binding signal (z-score): 0.944
[32]
  glycan array binding signal (z-score): 0.458
[33]
  glycan array binding signal (z-score): 0.238
[34]
  glycan array binding signal (z-score): -0.072
[35]
  glycan array binding signal (z-score): 0.856
[36]
  glycan array binding signal (z-score): 0.383
[37]
  glycan array binding signal (z-score): 0.378
[38]
  glycan array binding signal (z-score): -0.247
[39]
  glycan array binding signal (z-score): 0.23
[40]
  glycan array binding signal (z-score): -0.387
[41]
  glycan array binding signal (z-score): -0.319
[42]
  glycan array binding signal (z-score): 1.01
[43]
  glycan array binding signal (z-score): -0.34
[44]
  glycan array binding signal (z-score): -0.252
[45]
  glycan array binding signal (z-score): -0.238
[46]
  glycan array binding signal (z-score): -0.23
[47]
  glycan array binding signal (z-score): 2.52
[48]
  glycan array binding signal (z-score): -0.384
[49]
  glycan array binding signal (z-score): -0.331
[50]
  glycan array binding signal (z-score): -0.323
[51]
  glycan array binding signal (z-score): -0.381
[52]
  glycan array binding signal (z-score): -0.401
[53]
  glycan array binding signal (z-score): -0.347
[54]
  glycan array binding signal (z-score): -0.347
[55]
  glycan array binding signal (z-score): -0.11
[56]
  glycan array binding signal (z-score): -0.16
[57]
  glycan array binding signal (z-score): -0.017
[58]
  glycan array binding signal (z-score): 0.031
[59]
  glycan array binding signal (z-score): -0.41
[60]
  glycan array binding signal (z-score): -0.275
